Measured values from PubChem BioAssay AID1645887 (National Center for Advancing Translational Sciences (NCATS), 2021).
Values joined by “and” are separate entries in the source; they are usually repeats but may differ in a detail not shown here. Equal values may be shown once. In all, about 16,000 compounds went through this assay and about 40 (0.2%) were called active. Not shown: some 1% with an inconclusive outcome. Calls come from the whole dose curve; as a rule, active = well fitted activation curve with a large enough effect; inconclusive = small, poorly fitted or top-dose-only effect, or another doubt; inactive = no such curve, though single readings can be large or run the other way. The list shows a part of the results.

Target: Rap guanine nucleotide exchange factor 4 (Homo sapiens) (UniProt Q8WZA2)
UniProt Q8WZA2, sequence (Q8WZA2 whole entry, looked up): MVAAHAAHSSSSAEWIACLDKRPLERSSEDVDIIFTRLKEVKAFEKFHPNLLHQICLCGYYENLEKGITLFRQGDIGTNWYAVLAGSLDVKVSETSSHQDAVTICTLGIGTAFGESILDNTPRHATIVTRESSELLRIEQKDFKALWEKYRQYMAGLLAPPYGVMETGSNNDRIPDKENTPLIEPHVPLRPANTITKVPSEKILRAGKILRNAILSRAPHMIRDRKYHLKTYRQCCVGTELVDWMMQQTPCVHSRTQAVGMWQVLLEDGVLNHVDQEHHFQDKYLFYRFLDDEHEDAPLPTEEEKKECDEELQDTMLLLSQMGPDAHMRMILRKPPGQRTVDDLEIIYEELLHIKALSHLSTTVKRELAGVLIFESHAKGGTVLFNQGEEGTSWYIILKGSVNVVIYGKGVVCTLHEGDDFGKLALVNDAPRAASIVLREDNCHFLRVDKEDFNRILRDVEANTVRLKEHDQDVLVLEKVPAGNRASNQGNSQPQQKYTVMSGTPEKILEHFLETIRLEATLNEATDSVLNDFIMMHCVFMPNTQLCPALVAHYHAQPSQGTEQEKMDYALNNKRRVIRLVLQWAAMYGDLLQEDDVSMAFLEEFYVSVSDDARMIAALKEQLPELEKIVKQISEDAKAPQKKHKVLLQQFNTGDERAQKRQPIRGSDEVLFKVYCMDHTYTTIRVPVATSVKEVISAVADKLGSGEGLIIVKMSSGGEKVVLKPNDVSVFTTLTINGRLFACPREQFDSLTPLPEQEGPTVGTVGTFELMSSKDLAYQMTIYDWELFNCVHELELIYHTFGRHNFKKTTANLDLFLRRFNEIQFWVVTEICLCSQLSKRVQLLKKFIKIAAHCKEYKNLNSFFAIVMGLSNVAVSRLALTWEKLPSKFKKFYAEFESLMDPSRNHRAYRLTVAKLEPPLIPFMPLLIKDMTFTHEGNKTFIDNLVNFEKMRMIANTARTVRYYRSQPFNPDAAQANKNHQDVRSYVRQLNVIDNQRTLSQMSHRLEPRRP
Test: Validation qHTS for agonist of cAMP-regulated guanine nucleotide exchange factor 4 (EPAC2);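 for activation: exchange makes BODIPY-GDP fluorescence drop when released from Rap1B; series mostly up to about 150 µM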
Conditions: EPAC2 Rap1B BODIPY-GDP exchange, fluorescence; activation: active compounds read high
In short: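 Signal normalized against 6.5 mM cAMP as agonist control. Mix of EPAC2 (100 nM), RAP1B-BODIPY-GDP (250 nM) and GDP (50 uM) was read kinetically at 480/540 nm, every 5 min over 30 min, after 5 min room-temperature incubation with compound.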
% is set by controls: 0 for no effect and ±100 for the full control effect; potency is the fitted concentration of half-maximal effect.

Row | Structure (SMILES) | activation | Potency
1 | COc1c(O)cccc1O | inactive: -15.9% | –
2 | CCC1CN2CCc3cc(OC)c(OC)cc3C2CC1CC1NCCc2cc(OC)c(OC)cc21 (centres undefined) | inactive: -0.527% | –
3 | Cc1ccccc1C1(CC(=O)N2CCC[C@H]2C(N)=O)CC(=O)N(C2CCCC2)C1=O (some centres undefined) | inactive: -7.12% | –
4 | Cc1cccc(CNc2ncnc3ccc(-c4ccc(C(=O)N(C)C)cc4)cc23)c1 | inactive: -21.2% | –
5 | CN(C)C1C(=O)C(C(N)=O)=C(O)[C@@]2(O)C(=O)C3=C(O)c4c(O)ccc(Cl)c4C(O)[C@H]3C[C@@H]12 (some centres undefined) | inactive: 5.21% | –
6 | CC(=O)Nc1ncc([N+](=O)[O-])s1 | inactive: -9.87% | –
7 | O=S(=O)(NCc1nnc2n1CCN(Cc1ccccc1Cl)CC2)c1ccccc1 | inactive: -9.6% | –
8 | CS(=O)(=O)Nc1cccc(-c2cc(NCc3cccs3)ncn2)c1 | inactive: -2.46% | –
9 | OCC1O[C@@H](OC2C(O)C(CO)O[C@@]2(CO)O[C@@H]2OC(CO)C(O)C(O)C2O)C(O)C(O)C1O (some centres undefined) | inactive: -4.83% | –
10 | Cc1cc2nc(N3CCCN(Cc4cccn4-c4ncccn4)CC3)nc(C)c2cc1C | inactive: 4.48% | –
11 | CCOC(=O)C1CCCN(C(=O)c2cnn(-c3ncc4c(n3)-c3ccccc3CCC4)c2C2CC2)C1 (centres undefined) | inactive: -12.8% | –
12 | Cc1noc(C)c1-c1ccc2ncnc(N3CCC(C(=O)O)CC3)c2c1 | inactive: -13.5% | –
13 | Clc1ccccc1-c1nccc(-n2ccnc2)n1 | inactive: -17.4% | –
14 | CC12CCC(CC1)C(C)(C)O2 | inactive: -14% and inactive: -7.73% | –
15 | CC(=O)N1CCC[C@@]2(CCN(Cc3ccccc3)C2)C1 | inactive: 0.674% | –
16 | Cc1cc(-c2ccnc(-n3ncc(C(=O)NCC4COCCO4)c3C3CC3)n2)c(C)s1 (centres undefined) | inactive: -1.41% | –
17 | O=C(NCc1nnc2n1CCN(Cc1cccc(Cl)c1)CC2)c1cccc(F)c1 | inactive: -4.67% | –
18 | COc1ccccc1-c1ccc2ncnc(NCCNC(C)=O)c2c1 | inactive: -3.35% | –
19 | Nc1ccc2cc3ccc(N)cc3nc2c1 | – | active: 89.1 µM
20 | NC1(C(=O)O)CC(C(=O)O)C1 (centres undefined) | inactive: -1.56% and inactive: -8.7% and inactive: 0.327% | –
21 | C[C@H](CCC(=O)O)[C@H]1CC[C@H]2[C@@H]3CC[C@@H]4C[C@H](O)CC[C@]4(C)[C@H]3C[C@H](O)[C@]12C | inactive: -7.34% | –
22 | O=c1cc(-c2ccc(O)cc2)oc2cccc(O)c12 | inactive: -9.38% | –
23 | Cc1noc(C)c1-c1nc(NCc2cccnc2)c2ccccc2n1 | inactive: -6.22% | –
24 | Cc1cccc(CNc2ncncc2-c2ccccc2Cl)c1 | inactive: 10.1% | –
